Assay results published in ChEMBL document CHEMBL4888484, “Replenishing the malaria drug discovery pipeline: Screening and hit evaluation of the MMV Hit Generation Library 1 (HGL1) against asexual blood stage Plasmodium falciparum ,using a nano luciferase reporter read-out” (2022).
About 540 (0.36%) of roughly 150,000 compounds showed an effect of 50% or more. The list shows a part of the results.

Test system: Plasmodium falciparum
Experiment: Primary screen in NF54 nanoGlo assay, in single point, at 2uM, 72h; a lower Z score goes with more inhibition
Assay type: functional, Erythrocyte
Conditions: timepoint 72 hour

SMILES	% Inhibition	Z score
O=C1N[C@H]2C[C@@H](C(=O)NC[C@H]3O[C@H](CCOc4cc(C5CCCC5)ccc41)CC[C@@H]3O)N(Cc1ccc(Cl)c(F)c1)C2	33%	-3.78
COc1ccc(NC(=O)Cc2csc(-n3nc(C)c(Cl)c3C)n2)cc1	-20%	3.7
CCOC(=O)NCCC(=O)N[C@@H](C)c1ccncc1	-9%	1.44
CC(=O)N1CCCN(c2ccc3nnc(C(F)(F)F)n3n2)CC1	-3%	0.24
CC[C@@H](O)CNC(C)c1ccc(Cl)s1 (stereo partly drawn)	1%	-0.1
Cc1c(C)c(C(=O)N[C@@H](C)c2ccccc2)n(Cc2ccccc2F)c1C	-11%	1.43
CNCCN1C(=O)CC[C@@H]2CN(c3nc4ccccc4s3)CC[C@@H]21	1%	-0.17
O=S(=O)(c1ccccc1)N1CCN(C2CCCCCC2)CC1	-3%	0.37
CCOc1ccc2ccccc2c1CNc1cnn(CC(F)F)c1	-14%	2.12
OCC(CNc1ccncc1Br)C1CCOC1 (stereo not drawn)	-19%	1.76
O=C(COc1ccccc1)Nc1ccc(-c2cn3ccccc3n2)cc1	-6%	0.74
O=C(NCCCc1cnoc1)OCC1CCCCC1	-1%	0.25
CCCS(=O)(=O)N[C@H]1CCN(C(=O)Cc2c(C)nn(-c3ccc(Cl)c(Cl)c3)c2C)C1	-3%	0.33
COc1ccccc1-n1nc(Cc2ccccc2)n(CC(=O)NCC2CC2)c1=O	1%	-0.08
COc1cc(-c2cc(C(=O)N3CC[C@H](n4nccn4)C3)[nH]n2)cc(OC)c1OC	-10%	1.35
CO[C@H]1CS(=O)(=O)C[C@@H]1Nc1nc(C)cc(C)c1C#N	-10%	1.84
CCOc1ccc(C(=O)c2ccccc2C(=O)N2CC[C@H](N)C2)cc1OCC	-4%	0.48
O=C(NCCOC1CCCCC1)c1ccncc1Br	-2%	0.3
CCc1nccn1CCCNc1ncncc1C(=O)O	-13%	1.31
NC(=O)CN1CCCN(C(=O)c2cc(-c3ccccc3)cs2)CC1	2%	-0.21
O=C(CCn1nnc2ccccc21)N1[C@H]2CCNC[C@@H]1CC2	-5%	0.66

SMILES	% Inhibition	Z score
O=C(Nc1cnn(-c2ncc(N3CCCCC3)cn2)c1)c1ccncc1	2%	-0.32
CC(=O)NC(C)(C)C[C@H](C)NCc1nc(C)cc(C)n1	-13%	2.15
Cc1cccc(C)c1OCC(=O)Nc1ccc(-c2nc3cc4ccccc4cc3[nH]2)cc1	49%	-5.57
N#CC1(CS(=O)(=O)N[C@H](c2cc(F)ccc2F)C2CC2)CC1	0%	0.05
CCn1cnnc1CNS(=O)(=O)c1ccc(C2CCCCC2)cc1	-10%	1.59
CC[C@@H](Cc1ccccc1)NC(=O)CN(C)S(=O)(=O)c1ccc2c(c1)c(=O)n(C)c(=O)n2C	-11%	1.35
Cn1c(Cl)cnc1CN1CCC(C(=O)NCc2ccccc2)CC1	-4%	0.68
Cc1nc(C)c(Br)c(NC[C@@H](O)CO)n1	-7%	0.82
Cc1cnccc1N1CCC[C@@]2(CCC(=O)N(Cc3ccccn3)C2)C1	-5%	0.93
COc1ccc2c(c1)CCCN(c1ccncc1C#N)C2	-8%	1.27
O=S(=O)(Cc1cc(Cl)ccc1F)Nc1noc(C2CC2)n1	-4%	0.76
Cc1ccccc1N1CCN(c2ncc3c(=O)n(Cc4ccccc4F)c(=O)[nH]c3n2)CC1	18%	-2
O=S1(=O)NC(CN2CCOc3cc(F)ccc32)=Nc2ccccc21	-2%	0.34
O=C(NCCc1nc(-c2cccs2)c[nH]1)c1ccsc1	-9%	1.06
Cc1nccc(C(=O)NCc2c(C)cc(C)[nH]c2=O)n1	-3%	0.49
CC(C)Cn1c(C(=O)NC(C)C)nnc1N1CCC[C@H](C(N)=O)C1	8%	-0.84
CCOC(=O)c1ccc(NC(=O)c2cc(C)nc3c2c(=O)n(C)c(=O)n3C)cc1	-7%	0.95
Cc1ccccc1Cn1ccn2nc(-c3ccc4c(c3)OCO4)cc2c1=O	-10%	1.27
CN(Cc1ccc2nccnc2c1)C(=O)[C@@H]1CC(=O)Nc2ccc(F)cc21	-8%	1.59
Cc1cc(N2CCN(Cc3cc(C)on3)CC2)c2cc(OC(F)(F)F)ccc2n1	-1%	0.16
Cc1ccc2cc(CO)c(N3CCC([C@H](C)N4CCCC4)CC3)nc2c1	-14%	1.73

SMILES	% Inhibition	Z score
CCOC(=O)C1C2CCC(C2)N1S(C)(=O)=O (stereo not drawn)	-5%	0.57
COc1ccc(CNC(=O)c2ccccc2-c2nnn[nH]2)c(OC)c1	-5%	0.93
Cc1ccc(S(=O)(=O)N2CCc3nc(NC(=O)c4cccnc4)sc3C2)cc1	24%	-2.26
Cc1cnc(CNC(=O)[C@H]2CC[C@H](C(C)C)CC2)o1	11%	-1.42
CCCn1cnc2cc(-c3noc(Cc4cccc(F)c4)n3)ccc21	-12%	1.53
Cn1nc(C(=O)N2CCOCC2)cc1C(=O)Nc1ccc(F)cc1F	-38%	4.47
Cc1cccc(C)c1OC[C@H](C)NC(=O)N(C)Cc1cnccn1	-4%	0.39
Cn1nc(C(F)(F)F)cc1CN1CC(C)(C)CC[C@@H]1CO	-3%	0.66
COc1ccc(F)c(-c2nc(N)nc3[nH]ncc23)c1	-7%	0.89
C=CCn1c(C)c(CC(=O)Nc2cc(F)ccc2C)c(=O)n2nc(-c3ccc(C)cc3)nc12	7%	-0.87
COCc1cc(N(C)Cc2nc(-c3ccccc3)cs2)ncn1	-8%	1.02
O=C(O)c1cccc(/N=C(\NCCc2ccccc2)N2CCN(C3CCCCC3)CC2)c1	-18%	3.02
COc1ccc(S(=O)(=O)N2CCC(N3CCN(CCO)CC3)CC2)cc1C(C)C	-10%	1.64
COc1ccccc1-c1ccc(N2CCC[C@H](CNC(=O)c3cnccn3)C2)nn1	-8%	1.5
CN1Cc2ccccc2C[C@H]1C(=O)N1Cc2cnc(-c3ccccc3)nc2C1	-15%	2.85
CC(C)CC(=O)Nc1nc(C(=O)N2CCN(Cc3ccccc3)CC2)cs1	-4%	0.54
C[C@@]1(C(=O)NC2CCCCCCC2)CCC(=O)N1Cc1ccc(F)cc1Cl	6%	-0.8
CC(=O)N(C)c1ccc(C(=O)N2Cc3cc(C)ccc3CC2(C)C)cc1	-10%	1.92
Cc1cnc(OC2CCN(Cc3cc(O)nc(-c4ccccc4)n3)CC2)nc1	-10%	1.72
Cc1ccccc1N1CCC(N[C@H]2CCCNC2=O)CC1	-14%	1.57
Cc1cc2ccccc2nc1N1CCN([C@H]2CCS(=O)(=O)C2)CC1	-9%	0.75

SMILES	% Inhibition	Z score
Cc1cc(F)cc(CN2CCCn3nc(CNC(=O)C4CCC4)cc3C2)c1	-4%	0.79
Cc1nc2ccccc2n1CCc1noc([C@H]2CCCOC2)n1	-7%	1.3
CC(C)Cn1ncnc1CN1CCC[C@H](c2c[nH]c3ncccc23)C1	3%	-0.48
CN(Cc1ccc2nonc2c1)C(=O)NCCCn1ccnn1	-9%	1.63
Cc1cc(C2CC2)ncc1Br	9%	-1.42
Cc1cc(N[C@H]2CN(C(=O)[C@@H]3C[C@H]3C)C[C@@H]2C(F)(F)F)c(C#N)cn1	-1%	0.1
CCn1ncc(NCc2cccc3[nH]ccc23)c1C	-32%	3.81
CC(Nc1cnn(-c2ccccc2S(C)(=O)=O)c1)[C@@H]1C[C@H]1C1CC1 (stereo partly drawn)	-5%	0.59
O=C(c1ccco1)N(Cc1ccccc1OS(=O)(=O)c1cccc(C(F)(F)F)c1)C[C@H]1CCCO1	-5%	0.9
CC(C)c1nnsc1CNC(=O)[C@@H]1CCCCN1C	-14%	1.73
CC(C)C[C@H](N)C(=O)N1CCC(C)C1C (stereo partly drawn)	-9%	1.36
CCCN1C[C@@H](NS(=O)(=O)c2cccnc2)CC1=O	-4%	0.74
COC(=O)C1CCc2nnc(C(C)Oc3cccc(Cl)c3)n2C1 (stereo not drawn)	12%	-1.58
Cc1ccsc1CCC(=O)N1C2CCC1CC(n1ccnn1)C2 (stereo not drawn)	-6%	0.96
Cc1nc2c(c(=O)n1C)CN(C(=O)Nc1ccnn1C1CCCCC1)C2	5%	-0.96
COc1cccc(-c2nc3ccc(-c4ccccc4)cn3c2CN2CCN(S(=O)(=O)c3ccccc3OC(F)(F)F)CC2)c1	-6%	0.66
CC1CN(Cc2ncnn2C)CC(C)N1Cc1ncnn1C (stereo not drawn)	-1%	0.11
CCn1c(CO)nnc1[C@H]1C[C@@H](NC(=O)c2ccncc2Cl)C1	-24%	3.06
CC(C)Cc1cc(C(=O)NCCN2CCOCC2)nc(=O)[nH]1	-11%	1.26
CCCCN=C(NCCc1ccn(C(C)C)n1)NCc1nccn1C	9%	-1.15
COc1ccc(C(=O)N2CCCn3nc(-c4cccs4)cc3C2)cn1	-7%	1.34
